Patent US20230279151A1 (Sanofi, published 2023)

T1: human IL4 (IL004, Millipore) (human, UniProt P05112 25-153)
T1 construct: Commercial recombinant antigen; also called Antigen IL4
T1 sequence (looked up): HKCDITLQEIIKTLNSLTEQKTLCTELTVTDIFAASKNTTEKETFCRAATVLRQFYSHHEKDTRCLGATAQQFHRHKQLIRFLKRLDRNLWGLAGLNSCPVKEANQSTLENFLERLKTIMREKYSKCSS


Columns and labels:
[1] = target: T1, human IL4 (IL004, Millipore); test: SPR, Biacore 3000, antibody captured by anti-human Fc, IL4 as analyte; HEK293-FS expression
Protocol: (§1) Binding of antigens to the antibody constructs was measured using surface plasmon resonance (SPR) with a BlAcore 3000 instrument (GE Healthcare) with HBS-EP buffer (GE Healthcare). As antigens, human IL4 (IL004, Millipore) and human IL13 (IL012, Millipore) were used. The antihuman Fc capture antibody (human antibody capture kit, GE Life Sciences) was immobilized via primary amine groups (11000 RU) on a research grade CM5 chip (GE Life Sciences) using standard procedures. […] The tested antibody constructs were […] and injected at 100 nM concentration for 240 sec with a dissociation time of 300 sec at a flow rate of 30 µL/min. For human IL4 and IL13, a dilution series of 0.1 nM to 3 nM and 0.8 nM to 25 nM, respectively were used. Chip surfaces were regenerated with 2 min injects of the regeneration buffer provided with the capture kit. Sensorgrams were double-referenced with a blank chip surface and HBS-EP buffer blanks. Data analysis was performed using the BIAevaluation software v4.1.
(§2) The binding of the different bispecific Tandem-IgG constructs expressed in HEK293-FS or ExpiCHO cells as well as in vivo processed Tandem-IgG from the co-transfection with Furin variants was measured via surface plasmon resonance (SPR). The binding to the two human antigens IL4 and IL13 were compared to the binding characteristics of the individual monoclonal antibodies. […] In contrast, specific binding to IL13 was only detectable for in vivo processed Tandem-IgGs as well as the Tandem-lgG control comprising two LCs. […] Thus, processing of the linker sequence connecting the VLb (VL against IL13) at the inner position of the Tandem-lgG with the CK domain of the IL4 binding Fab at the outer position is required for a functional IL13 binding site. In vivo processing can thereby be mediated via endogenously expressed proteases or via co-transfected Furin variants.

[2] = target: T1, human IL4 (IL004, Millipore); test: SPR, Biacore 3000, antibody captured by anti-human Fc, IL4 as analyte; second block of the table (presumably ExpiCHO expression)
Protocol: as §1, §2

Binder | Kd [1] [pM] | koff [1] [s⁻¹] | Kd [2] [pM] | koff [2] [s⁻¹] | kon [2] [M⁻¹ s⁻¹] | kon [1] [M⁻¹ s⁻¹]
sLC-Tandem-(anti-IL4xanti-IL13)-PCL1-huIgG1 (bispecific antibody, Not processed in vivo without furin co-expression, in either HEK293-FS or ExpiCHO cells, so the single light chain was intact in the assay; also called sLC-PCL1-Tandem-IgG; sLC PCL1 Tandem-IgG) light: DIQMTQSPASLSVSVGDTITLTCHASQNIDVWLSWFQQKPGNIPKLLIYKASNLHTGVPSRFSGSGSGTGFTLTISSLQPEDIATYYCQQAHSYPFTFGGGTKLEIKRTVAAPSVFIFPPSDEQLKSGTASVVCLLNNFYPREAKVQWKVDNALQSGNSQESVTEQDSKDSTYSLSSTLTLSKADYEKHKVYACEVTHQGLSSPVTKSFNRGECRRKRGGGGSGGGGSGGGGSRRKRDIVLTQSPASLAVSLGQRATISCRASESVDSYGQSYMHWYQQKAGQPPKLLIYLASNLESGVPARFSGSGSRTDFTLTIDPVQAEDAATYYCQQNAEDSRTFGGGTKLEIKRTVAAPSVFIFPPSDEQLKSGTASVVCLLNNFYPREAKVQWKVDNALQSGNSQESVTEQDSKDSTYSLSSTLTLSKADYEKHKVYACEVTHQGLSSPVTKSFNRGEC heavy: QVQLQQSGPELVKPGASVKISCKASGYSFTSYWIHWIKQRPGQGLEWIGMIDPSDGETRLNQRFQGRATLTVDESTSTAYMQLRSPTSEDSAVYYCTRLKEYGNYDSFYFDVWGAGTLVTVSSASTKGPSVFPLAPSSKSTSGGTAALGCLVKDYFPEPVTVSWNSGALTSGVHTFPAVLQSSGLYSLSSVVTVPSSSLGTQTYICNVNHKPSNTKVDKKVEPKSCDKTHTGGGGSGGGGSGGGGSEVQLKESGPGLVAPGGSLSITCTVSGFSLTDSSINWVRQPPGKGLEWLGMIWGDGRIDYADALKSRLSISKDSSKSQVFLEMTSLRTDDTATYYCARDGYFPYAMDFWGQGTSVTVSS[sequence of human IgG1 constant region not given] | 0.901 | 0.000379 | 1.42 | 0.000161 | 1.13e+08 | 
sLC-Tandem-(anti-IL4xanti-IL13)-ΔPCL1-huIgG1 (bispecific antibody, The recognition site is deleted (RQQR); The construct was not processed, so the single light chain was intact in the assay; also called sLC deltaPCL Tandem-IgG) light: DIQMTQSPASLSVSVGDTITLTCHASQNIDVWLSWFQQKPGNIPKLLIYKASNLHTGVPSRFSGSGSGTGFTLTISSLQPEDIATYYCQQAHSYPFTFGGGTKLEIKRTVAAPSVFIFPPSDEQLKSGTASVVCLLNNFYPREAKVQWKVDNALQSGNSQESVTEQDSKDSTYSLSSTLTLSKADYEKHKVYACEVTHQGLSSPVTKSFNRGECRQQRGGGGSGGGGSGGGGSRQQRDIVLTQSPASLAVSLGQRATISCRASESVDSYGQSYMHWYQQKAGQPPKLLIYLASNLESGVPARFSGSGSRTDFTLTIDPVQAEDAATYYCQQNAEDSRTFGGGTKLEIKRTVAAPSVFIFPPSDEQLKSGTASVVCLLNNFYPREAKVQWKVDNALQSGNSQESVTEQDSKDSTYSLSSTLTLSKADYEKHKVYACEVTHQGLSSPVTKSFNRGEC heavy: QVQLQQSGPELVKPGASVKISCKASGYSFTSYWIHWIKQRPGQGLEWIGMIDPSDGETRLNQRFQGRATLTVDESTSTAYMQLRSPTSEDSAVYYCTRLKEYGNYDSFYFDVWGAGTLVTVSSASTKGPSVFPLAPSSKSTSGGTAALGCLVKDYFPEPVTVSWNSGALTSGVHTFPAVLQSSGLYSLSSVVTVPSSSLGTQTYICNVNHKPSNTKVDKKVEPKSCDKTHTGGGGSGGGGSGGGGSEVQLKESGPGLVAPGGSLSITCTVSGFSLTDSSINWVRQPPGKGLEWLGMIWGDGRIDYADALKSRLSISKDSSKSQVFLEMTSLRTDDTATYYCARDGYFPYAMDFWGQGTSVTVSS[sequence of human IgG1 constant region not given] | 2.29 | 0.000155 | 2.75 | 0.000149 | 5.43e+07 | 6.75e+07
